# Test results as given in the supplement of paper PMC4466236.
# The full ranking holds about 33,000 sequences; the median of “E-score (dimensionless, -0.5 to 0.5)” is about -0.058, and the highest 2% start at about 0.35. This is one part of the list.
# Test system: MvaT
# Assay: PBM 8-mer E-score (mean of HK and ME arrays) (E-score (dimensionless, -0.5 to 0.5)); higher = stronger relative binding preference; most listed sequences are background and not binding sites
# Method: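 Protein binding microarray: GST-tagged full-length MvaT (P. aeruginosa PAO1) bound to two universal double-stranded 60-mer arrays (ME and HK), each with a constant 25-mer primer and a variable 35-mer region covering all 8-mers. The 8-mer E-score (rank-based, range -0.5 to 0.5, >0.45 = specific binding) is the mean of the two arrays.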
row,Sequence,PBM 8-mer E-score
1,CCTCATTA,0.0777
2,ATCTTAAA,0.243
3,ACGGCTCT,-0.0273
4,CAATAAGA,0.238
5,ATCCCCGA,-0.0832
6,ATACTTCA,0.226
7,CAAGCGGA,-0.2
8,GAGCCCCC,-0.295
9,CCTTGCTA,-0.00222
10,CTAGTGAG,-0.148
11,CTTAACTA,0.305
12,ATCTTAAG,0.197
13,CGTCTGAC,-0.277
14,TGTAACAA,0.238
15,CAGGTGGA,-0.338
16,AATAGGGC,0.0251
17,ACTTTCAT,0.262
18,ATCAGAAA,0.0788
19,AACGCCCC,-0.342
20,ATTCTCAG,0.143
21,TCTGCAAA,-0.0149
22,AGAGCCTA,-0.135
23,AGCGCCGA,-0.162
24,GTACATAC,0.135
25,ATCACAAC,0.0888

row,Sequence,PBM 8-mer E-score
1,CTCCTTTA,-0.0694
2,ATGCTATA,0.246
3,AAGAAATA,0.27
4,GCAATAGA,0.127
5,AACACGTT,-0.0733
6,GCTCCACA,-0.0692
7,ACGAAAAG,0.062
8,CAACTGAC,0.101
9,GAAAAAGC,0.0195
10,AATGGGAA,-0.00976
11,AACATGGC,0.0422
12,GGGGCACC,-0.313
13,ATACAATG,0.204
14,CGGTGAAA,0.0483
15,AAGAAGAT,0.115
16,AAAGTAAA,0.306
17,CTTTTCCC,-0.0265
18,ATGAGTAA,0.14
19,AGAAAGTG,0.168
20,ATTGCATC,-0.116
21,GAAACTGA,0.0684
22,CCGACCTA,-0.209
23,AAAGACCG,-0.0757
24,CGCCTTGA,-0.182
25,TCGGTCAA,-0.0832

row,Sequence,PBM 8-mer E-score
1,CGTCGCTA,-0.0982
2,GCACTCCC,-0.12
3,ATCGAGAT,0.0901
4,CAAATCTG,0.0463
5,ACATAAGT,0.28
6,GATTAAGC,0.116
7,AAACTTCA,0.198
8,CTCCCCGA,-0.203
9,ACGCGACG,-0.208
10,CACTACAA,0.0235
11,AAAGTTCT,0.265
12,ACGGCGAT,-0.0139
13,AATTTAGC,0.227
14,ACACATAG,0.0946
15,GACTCGTA,-0.162
16,AGAGTGTG,0.162
17,ACAGTTAG,0.141
18,CAAAGCGG,-0.128
19,AGCGTCAT,-0.205
20,CACTATGG,-0.00157
21,CTTTACGC,0.172
22,CAATCCAG,0.0618
23,AGCTATTA,0.27
24,TCTGACAA,-0.0339
25,CCGTTCCA,-0.0556

row,Sequence,PBM 8-mer E-score
1,CGCAACTA,0.197
2,CGTTAACG,0.156
3,CAAGAACC,-0.125
4,TGCCGTAA,0.0424
5,GAGCCTAA,-0.11
6,GAAGGCGC,-0.239
7,ATAATTCA,0.325
8,AGATCGCC,-0.119
9,CAGAACGA,-0.151
10,CATAGGAC,0.0732
11,GTTCTACA,0.114
12,CGGCTGCA,-0.19
13,AGAAACCA,0.0491
14,GGGGAAAA,-0.0416
15,ATCCTAGC,-0.0493
16,ATGCCTGG,-0.224
17,CCCATACA,-0.0841
18,ACCTAAAC,0.0896
19,ATTGCAGC,0.0188
20,ACAGCGGG,-0.0961
21,GCTACGTA,-0.101
22,ACTTGCAT,0.217
23,GTTTATAA,0.383
24,CGAGTCTC,-0.159
25,CGACCTAA,0.00602

row,Sequence,PBM 8-mer E-score
1,AGAAGAGG,-0.186
2,ATAACTAC,0.272
3,CACCCCTC,-0.247
4,ACCCGTGC,-0.0911
5,CCTGCAGG,-0.313
6,CAAGATTG,0.00401
7,CATAGTCA,0.0109
8,GAAGAAAA,0.042
9,GCCACCGC,-0.193
10,ATCGGTTA,0.0592
11,CCCTGGCC,-0.346
12,CTTTATTC,0.209
13,CCTTTATC,0.136
14,CTCCCAGC,-0.251
15,ATTATTCA,0.328
16,TAAGGATA,0.171
17,CGACCCCG,-0.227
18,CGCTTAAA,0.181
19,CATTTTGA,0.174
20,GAGGCTCA,-0.295
21,GCATACAC,0.0199
22,AAATATAG,0.332
23,AGACTACG,-0.25
24,CGCACCCC,-0.26
25,TTAGCCAA,0.12

row,Sequence,PBM 8-mer E-score
1,TAACAGAA,0.0818
2,ACTGCGGC,-0.113
3,CGTAACGA,-0.0979
4,CGTTCGCA,0.0402
5,CCGGGTAG,-0.21
6,ATCTCTCA,0.0907
7,GCTGGGAA,-0.00359
8,TAAGTGTA,0.262
9,CACAAGCG,-0.114
10,GCTCCTGA,-0.239
11,AATGTTAG,0.209
12,ACTGGAAT,0.118
13,CGCAGGGC,-0.301
14,GAGAGAAC,-0.126
15,CGGTTGCC,-0.279
16,CGGAATAG,0.153
17,TATCTTCA,0.234
18,CAGTGTAC,-0.0288
19,TAACAATA,0.394
20,CGCGTGGC,-0.239
21,AATTCAGG,0.124
22,CTCACAAA,-0.0744
23,CACAACTA,0.211
24,ATGGTTGA,-0.0992
25,ACGGCCAC,-0.275

row,Sequence,PBM 8-mer E-score
1,GTGTGAGA,-0.0546
2,AATCTACG,0.0641
3,AATCAATG,0.144
4,GGTGCTAA,-0.0943
5,CTTCGGAA,-0.12
6,GACCCCCC,-0.405
7,ATACTTCG,0.117
8,AGCATTTC,-0.0862
9,CACTTAAA,0.0563
10,AGGCTCAC,-0.183
11,AGAATAAT,0.411
12,TCTTGGAA,-0.0259
13,AGGCCACC,-0.167
14,TAAAAGCA,0.251
15,GGACGAAA,-0.166
16,CCAACAAC,0.0904
17,AAGCGCCG,-0.105
18,GATCTTGA,0.00283
19,ATGTTTGG,0.144
20,CCTCTACA,-0.165
21,AAAGTTGA,0.252
22,GCCATGCC,-0.203
23,GCATTGGA,-0.0184
24,GAAGGGTA,-0.0926
25,ATACTAAT,0.33

row,Sequence,PBM 8-mer E-score
1,CAGATATG,0.131
2,ATTCTAGC,0.117
3,TCAAAGAA,0.0999
4,CATAATAC,0.327
5,GTGGGTTA,0.187
6,ATGTATAA,0.35
7,ATGGAAGA,-0.108
8,CAGGTGGG,-0.15
9,CAAGATAC,0.141
10,ATAAGCAT,0.166
11,GGAGATTA,0.0688
12,GAAAACAA,0.282
13,TGGGCCAA,-0.102
14,AAGCGATG,-0.0951
15,ACGGACGG,-0.112
16,CGATAGGA,-0.177
17,CACAGCTA,-0.0542
18,ATGTGGGC,-0.131
19,CATTACGC,-0.0147
20,CCCCAGCC,-0.309
21,CGTCGCCC,-0.188
22,AATCCCAC,-0.0505
23,GCTCCAGA,-0.237
24,CCTTCTTC,-0.341
25,AATCCTCC,-0.184

row,Sequence,PBM 8-mer E-score
1,ACGGCTGA,-0.181
2,AACTGTCG,-0.0139
3,AGCGACAC,-0.101
4,AGCCGACA,-0.108
5,CTATCTCC,-0.0239
6,AATCTTCG,0.0695
7,CGGTGATC,-0.228
8,TGAACGCA,-0.114
9,AAACTAAC,0.324
10,ATTAGTCC,0.0581
11,AAGACACC,-0.0676
12,AGACAACA,0.129
13,TCTCTCAA,-0.0581
14,GGAGCGTA,-0.147
15,ACAAATAT,0.405
16,ACTCGTTA,0.177
17,AGGTTTGA,0.0722
18,AAGAGGAA,-0.065
19,ACATATTA,0.44
